The whole screen tested about 350,000 compounds, of which about 31,000 (8.9%) were called active. Inconclusive results, whose numbers are uncertain, are shown with a selection of clear calls. The call rests on the fitted dose curve; in most records, active means well fitted inhibition curve with a large enough effect; inconclusive means small, poorly fitted or top-dose-only effect; inactive means no such curve, though single readings can be large or run the other way. Potencies beside an inconclusive call are fits to weak or partial responses and may not hold up.
Each compound was assayed against Histone-lysine N-methyltransferase EHMT2 (Homo sapiens) (UniProt Q96KQ7) (assay: qHTS Assay for Inhibitors of Histone Lysine Methyltransferase G9a). Conditions: G9a H3K9 monomethylation, AlphaScreen, 2 h; activity, negative = inhibition: at 59 µM (top of the series) unless noted.
Summary of the method: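 AlphaScreen read-out: biotin-H3K9 peptide (500 nM) methylation by 20 nM enzyme with 20 uM SAM, 2 h at room temperature after 15 min compound preincubation; anti-monomethyl H3K9 antibody plus donor/acceptor beads, 10 min dark.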
Further: nearly all actives have a fitted effect of over 75% in size.
On the % scale 0 is the no-effect control and ±100 the full control effect; potency means the concentration at half of the fitted maximal effect; tags describe the fitted curve by direction and shape.

Chain of UniProt Q96KQ7 (Q96KQ7 whole entry, looked up): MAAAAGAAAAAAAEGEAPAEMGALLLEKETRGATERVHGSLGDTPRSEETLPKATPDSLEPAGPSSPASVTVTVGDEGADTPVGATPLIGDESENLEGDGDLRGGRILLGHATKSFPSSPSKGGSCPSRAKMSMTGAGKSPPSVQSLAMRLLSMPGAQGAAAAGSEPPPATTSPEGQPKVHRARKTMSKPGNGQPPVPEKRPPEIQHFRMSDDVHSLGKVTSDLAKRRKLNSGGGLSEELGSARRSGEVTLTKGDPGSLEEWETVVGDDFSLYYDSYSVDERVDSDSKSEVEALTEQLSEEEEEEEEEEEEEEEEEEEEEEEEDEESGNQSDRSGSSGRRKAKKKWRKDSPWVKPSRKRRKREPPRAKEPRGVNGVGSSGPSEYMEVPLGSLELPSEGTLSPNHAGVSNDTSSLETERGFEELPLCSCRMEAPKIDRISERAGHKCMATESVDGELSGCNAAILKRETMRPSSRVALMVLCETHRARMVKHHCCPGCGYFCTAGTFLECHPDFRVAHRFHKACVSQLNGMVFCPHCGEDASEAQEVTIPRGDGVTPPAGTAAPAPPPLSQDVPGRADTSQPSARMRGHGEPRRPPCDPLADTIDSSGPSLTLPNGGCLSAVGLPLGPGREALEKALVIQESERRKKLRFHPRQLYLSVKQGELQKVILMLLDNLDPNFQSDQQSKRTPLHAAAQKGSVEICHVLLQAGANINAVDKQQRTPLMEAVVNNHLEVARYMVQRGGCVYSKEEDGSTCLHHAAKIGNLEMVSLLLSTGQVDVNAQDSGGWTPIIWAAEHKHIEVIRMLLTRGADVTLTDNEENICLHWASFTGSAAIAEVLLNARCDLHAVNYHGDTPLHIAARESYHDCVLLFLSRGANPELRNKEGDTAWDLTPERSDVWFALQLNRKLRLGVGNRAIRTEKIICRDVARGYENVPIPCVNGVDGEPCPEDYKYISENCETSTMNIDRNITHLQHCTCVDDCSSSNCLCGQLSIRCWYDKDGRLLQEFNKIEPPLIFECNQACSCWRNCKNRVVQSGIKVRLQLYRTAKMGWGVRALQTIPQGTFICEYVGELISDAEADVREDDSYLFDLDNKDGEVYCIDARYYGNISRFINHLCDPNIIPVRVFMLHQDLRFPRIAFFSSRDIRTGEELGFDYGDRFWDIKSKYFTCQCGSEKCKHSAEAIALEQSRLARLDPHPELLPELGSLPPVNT

Q: O=C(CNC(=O)c1ccco1)Nc1ccc(N2CCCCCC2)cc1 was tested. Which Potency did it give?
A: Its Potency is inconclusive: 8.91 µM [inhibitor, single point].

Q: Cc1cccc(C)c1Nc1nnc(SCc2cn3cccc(C)c3n2)s1 was tested. Which Potency did it give?
A: Its Potency is inconclusive: 79.4 µM [inhibitor, partial curve, poor fit].

Q: O=C(NC(=S)Nn1cnc2c(cnn2-c2ccccc2)c1=O)c1ccc(Oc2ccccc2)cc1 was tested. Which Potency did it give?
A: Its Potency is “inactive”.

Q: With CCn1c(C)nnc1SCC(=O)Nc1ccccc1Cl as the compound, how does the Potency read?
A: The Potency was inconclusive: 89.1 µM [inhibitor, partial curve, poor fit].

Q: O=C(CN1C(=O)C2(SCC(=O)N2c2ccc(Cl)cc2)c2ccccc21)NCCc1ccccc1 (stereo not given) was tested. Which Potency did it give?
A: Its Potency is “inactive”.

Q: With CCOc1ccccc1NC(=O)c1c(NC(=O)c2ccncc2)sc2c1CCC(C(C)(C)C)C2 (stereo not given) as the compound, how does the Potency read?
A: Its Potency is “inactive”.

Q: For CC(=O)c1c(O)c2ccccc2n(C(C)C)c1=O, which Potency is on record?
A: Its Potency is inconclusive: 89.1 µM [inhibitor, single point].

Q: Which Potency does the source give for CC(C)[C@H](NC(=O)c1ccco1)C(=O)OCC(=O)N1CCc2ccccc21 here?
A: The Potency was inconclusive: 22.4 µM [inhibitor, partial curve, poor fit].

Q: For c1ccc(CNCCNCc2ccccc2)cc1, which activity, negative = inhibition is on record?
A: Its activity, negative = inhibition is inactive: -34.1% [at 12.7 µM].

Q: Which Potency does the source give for CCOc1ccc(NC(=O)CN(C)C(=O)C2CSC3(C)CCC(=O)N23)cc1OCC (stereo not given) here?
A: The Potency was “inactive”.

Q: CCN(CCNS(=O)(=O)c1ccc2c(c1)oc(=O)n2C)c1ccccc1 was tested. Which Potency did it give?
A: Its Potency is inconclusive: 79.4 µM [inhibitor, single point].

Q: How did the activity, negative = inhibition turn out when CN1C(=O)C(O)(CC(=O)c2ccccn2)c2cc(Br)ccc21 (stereo not given) was run?
A: The activity, negative = inhibition was inconclusive: -65.3% [inhibitor].

Q: Which Potency does the source give for Cc1c([N+](=O)[O-])cc(S(=O)(=O)Nc2ccc(-c3ccc(N4CCCC4)nn3)cc2)cc1[N+](=O)[O-] here?
A: Its Potency is inconclusive: 79.4 µM [inhibitor, partial curve, poor fit].

Q: Which Potency does the source give for Cc1ccc(/C=N/c2sc3c(c2C#N)CCC3)o1 here?
A: Its Potency is active: 17.8 µM.

Q: Which Potency does the source give for Cc1ccc(Cn2c(C)c3cnn(CC(=O)N4CCN(c5ccc(F)cc5)CC4)c(=O)c3c2C)cc1 here?
A: The Potency was inconclusive: 31.6 µM [inhibitor, partial curve, poor fit].

Q: For Cc1ccc(/C=C2\S/C(=N/S(=O)(=O)c3cccs3)NC2=O)cc1, which Potency is on record?
A: Its Potency is “inactive”.

Q: Which Potency does the source give for O=C(NCCN1CCOCC1)NC1(C(F)(F)F)Oc2ccccc2O1 here?
A: Its Potency is inconclusive: 0.501 µM [inhibitor, full curve, poor fit].

Q: Which Potency does the source give for COc1cccc(NC(=O)C2Cc3ccccc3CN2C(=O)c2ccco2)c1 (stereo not given) here?
A: Its Potency is active: 35.5 µM.

Q: How did the Potency turn out when CC1CN(C(=O)CCc2cc(C(C)(C)C)c(O)c(C(C)(C)C)c2)CC(C)O1 (stereo not given) was run?
A: The Potency was “inactive”.

Q: With COc1ccc(C(=O)NCc2nnc(SCC(=O)Nc3ccc(F)cc3)n2-c2ccccc2)cc1 as the compound, how does the Potency read?
A: Its Potency is “inactive”.

Q: COC(=O)c1ccc(NC(=O)CSc2nc3c(c(=O)n(C)c(=O)n3C)n2Cc2ccccc2)cc1 was tested. Which Potency did it give?
A: The Potency was inconclusive: 0.891 µM [inhibitor, full curve, poor fit].

Q: How did the Potency turn out when CC(C)C(=O)c1cc2c(cc1NC(=O)c1ccccc1F)OCCO2 was run?
A: The Potency was “inactive”.

Q: Which Potency does the source give for Cc1ccc(NC(=O)Cn2cnc3c(oc4ccccc43)c2=O)cc1 here?
A: Its Potency is inconclusive: 25.1 µM [inhibitor, partial curve, poor fit].

Q: For CCC1=C(OC(=O)N(CC)CC)N2C(=O)OC(=NCC(=O)OC)[C@]2(C)[C@H]2C1=CC[C@H]1C(=O)N(CC)C(=O)[C@H]12, which activity, negative = inhibition is on record?
A: The activity, negative = inhibition was inconclusive: -60% [inhibitor] [at 12.7 µM].

Q: How did the Potency turn out when Oc1ccc(NCc2ccccc2OCc2ccccc2Cl)cc1 was run?
A: The Potency was inconclusive: 0.501 µM [inhibitor, full curve, poor fit].

Q: Which Potency does the source give for Cc1ccc(S(=O)(=O)Nc2c(C)nc3nc(C)[nH]n3c2=O)c(C)c1 here?
A: Its Potency is “inactive”.

Q: With CN(C)c1ccc(NC(=O)CSC2=Nc3ccccc3C3=NC(CC(=O)NCc4ccc5c(c4)OCO5)C(=O)N23)cc1 (stereo not given) as the compound, how does the Potency read?
A: Its Potency is inconclusive: 28.2 µM [inhibitor, partial curve, poor fit].

Q: How did the Potency turn out when C/C(=N\NC(=O)c1ccc(Br)cc1)c1ccccc1 was run?
A: Its Potency is “inactive”.

Q: For CC1=NNC(=O)C1CCC(=O)N/N=C/C=C/c1ccccc1 (stereo not given), which Potency is on record?
A: The Potency was “inactive”.

Q: Which Potency does the source give for Cc1cccc(-n2ncc(C(=O)Nc3ccc4c(c3)OCO4)c2C2CCN(C(=O)OC(C)(C)C)CC2)c1 here?
A: Its Potency is inconclusive: 25.1 µM [inhibitor, single point].

Q: COc1ccc(Cl)cc1NC(=O)c1c(NCc2cccs2)sc2c1CCCC2 was tested. Which Potency did it give?
A: The Potency was active: 1.41 µM.

Q: Cc1ccsc1/C=C1\Oc2cc(OCC(=O)c3ccccc3)ccc2C1=O was tested. Which Potency did it give?
A: Its Potency is inconclusive: 39.8 µM [inhibitor, single point].

Q: How did the Potency turn out when COc1cc(OC)cc(C(=O)N[C@H](C(=O)NCc2cccs2)C(C)C)c1 was run?
A: The Potency was inconclusive: 0.631 µM [inhibitor, partial curve, poor fit].

Q: Which Potency does the source give for CC(C)N1CCC2(CC1)N=C(c1ccc3c(c1)OCO3)CC(c1cc(Cl)ccc1O)N2 (stereo not given) here?
A: Its Potency is inconclusive: 39.8 µM [inhibitor, single point].

Q: Which Potency does the source give for C=CCOc1cccc(NC(=O)c2ccccc2SC)c1 here?
A: The Potency was “inactive”.

Q: For CCCc1cc(CN(C)C(=O)CC2C(=O)NCCN2Cc2ccccc2C)[nH]n1 (stereo not given), which Potency is on record?
A: Its Potency is inconclusive: 89.1 µM [inhibitor, single point].

Q: For Cc1cc2ccccn2c1C(=O)c1ccccc1Br, which Potency is on record?
A: Its Potency is inconclusive: 44.7 µM [inhibitor, partial curve].

Q: How did the Potency turn out when Cc1csc(N/N=C/c2ccc(O)c([N+](=O)[O-])c2)n1 was run?
A: Its Potency is active: 14.1 µM.

Q: Which Potency does the source give for CCC(c1nnc(SCC(=O)NCCc2ccc(OC)c(OC)c2)n1Cc1ccccc1)N(C)C (stereo not given) here?
A: The Potency was “inactive”.

Q: For O=C(CN1CCN(Cc2ccccc2)CC1)Nc1cccc(Br)c1, which Potency is on record?
A: Its Potency is inconclusive: 89.1 µM [inhibitor, single point].

Q: Which Potency does the source give for Cc1ccc2[nH]c(=O)c(CN(Cc3ccco3)C(=O)c3cccs3)cc2c1 here?
A: Its Potency is “inactive”.

Q: For OC(CNc1ccccc1)COc1ccc(OCC(O)CNc2ccccc2)cc1 (stereo not given), which Potency is on record?
A: Its Potency is inconclusive: 39.8 µM [inhibitor, single point].

Q: For Cn1nc(-c2ccc(C(=O)Nc3ccc(OC(F)(F)F)cc3)cc2)c2ccccc2c1=O, which Potency is on record?
A: Its Potency is “inactive”.

Q: Which Potency does the source give for CCOC(=O)C1CCN(S(=O)(=O)c2ccc3c(c2)CCN3C(C)=O)CC1 here?
A: The Potency was “inactive”.

Q: How did the Potency turn out when Cc1cc(C)c2nc(NNC(=O)c3ccc(S(=O)(=O)N4CCc5ccccc5C4)cc3)sc2c1 was run?
A: The Potency was active: 39.8 µM.
